# The list shows a part of the results.
# What was measured:
# Assay in all cases: glycan array binding signal (z-score within array); higher = stronger binding
# Details in all cases: glycan notation: IUPAC condensed, linker removed
# Man(b1-4)GlcNAc = molecular target: Man(b1-4)GlcNAc
# In short: (§1)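 Arrays were curated from the Consortium for Functional Glycomics database, 3228 in total, and kept only where the protein sequence was available. Binding is expressed as a within-array Z-score. This score was averaged across arrays of the same protein sequence at different concentrations or buffers and across linkers, and negative values can be read as non-binding.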
# Neu5Ac(a2-3)Gal = molecular target: Neu5Ac(a2-3)Gal
# In short: as §1
# [1] = molecular target: Neu5Ac(a2-3)Gal(b1-3)GalNAc
# In short: as §1
# [2] = molecular target: Neu5Ac(a2-3)Gal(b1-3)GalNAc(b1-3)Gal(a1-4)Gal(b1-4)Glc
# In short: as §1
# [3] = molecular target: Neu5Ac(a2-3)Gal(b1-3)GalNAc(b1-4)[Neu5Ac(a2-3)]Gal(b1-4)Glc
# In short: as §1
# [4] = molecular target: Neu5Ac(a2-3)Gal(b1-3)GalNAc6S
# In short: as §1
# [5] = molecular target: Neu5Ac(a2-3)Gal(b1-3)GlcNAc
# In short: as §1
# [6] = molecular target: Neu5Ac(a2-3)Gal(b1-3)GlcNAc(b1-3)Gal(b1-3)GlcNAc
# In short: as §1
# [7] = molecular target: Neu5Ac(a2-3)Gal(b1-3)GlcNAc(b1-3)Gal(b1-4)GlcNAc
# In short: as §1
# [8] = molecular target: Neu5Ac(a2-3)Gal(b1-3)GlcNAc6S
# In short: as §1
# [9] = molecular target: Neu5Ac(a2-3)Gal(b1-3)[Fuc(a1-4)]GlcNAc
# In short: as §1
# [10] = molecular target: Neu5Ac(a2-3)Gal(b1-3)[Fuc(a1-4)]GlcNAc(b1-3)Gal(b1-4)[Fuc(a1-3)]GlcNAc
# In short: as §1
# [11] = molecular target: Neu5Ac(a2-3)Gal(b1-3)[Neu5Ac(a2-3)Gal(b1-4)]GlcNAc
# In short: as §1
# [12] = molecular target: Neu5Ac(a2-3)Gal(b1-3)[Neu5Ac(a2-6)]GalNAc
# In short: as §1
# Neu5Ac(a2-3)Gal(b1-4)Glc = molecular target: Neu5Ac(a2-3)Gal(b1-4)Glc
# In short: as §1
# [13] = molecular target: Neu5Ac(a2-3)Gal(b1-4)GlcNAc
# In short: as §1
# [14] = molecular target: Neu5Ac(a2-3)Gal(b1-4)GlcNAc(b1-3)Gal(b1-3)GlcNAc
# In short: as §1
# [15] = molecular target: Neu5Ac(a2-3)Gal(b1-4)GlcNAc(b1-3)Gal(b1-4)GlcNAc
# In short: as §1
# [16] = molecular target: Neu5Ac(a2-3)Gal(b1-4)GlcNAc(b1-3)Gal(b1-4)GlcNAc(b1-3)Gal(b1-4)GlcNAc
# In short: as §1
# [17] = molecular target: Neu5Ac(a2-3)Gal(b1-4)GlcNAc(b1-3)Gal(b1-4)[Fuc(a1-3)]GlcNAc
# In short: as §1
# [18] = molecular target: Neu5Ac(a2-3)Gal(b1-4)GlcNAc(b1-6)[Gal(b1-3)]GalNAc
# In short: as §1
# [19] = molecular target: Neu5Ac(a2-3)Gal(b1-4)GlcNAc6S
# In short: as §1
# [20] = molecular target: Neu5Ac(a2-3)Gal(b1-4)[Fuc(a1-3)]GlcNAc
# In short: as §1
# [21] = molecular target: Neu5Ac(a2-3)Gal(b1-4)[Fuc(a1-3)]GlcNAc(b1-3)Gal
# In short: as §1
# [22] = molecular target: Neu5Ac(a2-3)Gal(b1-4)[Fuc(a1-3)]GlcNAc(b1-3)Gal(b1-4)GlcNAc
# In short: as §1
# [23] = molecular target: Neu5Ac(a2-3)Gal(b1-4)[Fuc(a1-3)]GlcNAc(b1-3)Gal(b1-4)[Fuc(a1-3)]GlcNAc(b1-3)Gal(b1-4)[Fuc(a1-3)]GlcNAc
# In short: as §1
# [24] = molecular target: Neu5Ac(a2-3)Gal(b1-4)[Fuc(a1-3)]GlcNAc6S
# In short: as §1
# [25] = molecular target: Neu5Ac(a2-3)Gal6S(b1-4)GlcNAc
# In short: as §1
# [26] = molecular target: Neu5Ac(a2-3)Gal6S(b1-4)[Fuc(a1-3)]GlcNAc
# In short: as §1
# Neu5Ac(a2-3)GalNAc = molecular target: Neu5Ac(a2-3)GalNAc
# In short: as §1
# [27] = molecular target: Neu5Ac(a2-3)GalNAc(b1-4)GlcNAc
# In short: as §1
# [28] = molecular target: Neu5Ac(a2-3)[GalNAc(b1-4)]Gal(b1-4)Glc
# In short: as §1
# [29] = molecular target: Neu5Ac(a2-3)[GalNAc(b1-4)]Gal(b1-4)GlcNAc
# In short: as §1
# [30] = molecular target: Neu5Ac(a2-3)[Neu5Ac(a2-6)]GalNAc
# In short: as §1
# [31] = molecular target: Neu5Ac(a2-6)Gal(b1-4)GlcNAc
# In short: as §1
# [32] = molecular target: Neu5Ac(a2-6)Gal(b1-4)GlcNAc(b1-2)Man(a1-3)[Neu5Ac(a2-6)Gal(b1-4)GlcNAc(b1-2)Man(a1-6)]Man(b1-4)GlcNAc(b1-4)GlcNAc
# In short: as §1
# [33] = molecular target: Neu5Ac(a2-6)Gal(b1-4)GlcNAc(b1-3)Gal(b1-4)GlcNAc
# In short: as §1
# [34] = molecular target: Neu5Ac(a2-6)Gal(b1-4)GlcNAc(b1-3)Gal(b1-4)[Fuc(a1-3)]GlcNAc(b1-3)Gal(b1-4)[Fuc(a1-3)]GlcNAc
# In short: as §1
# [35] = molecular target: Neu5Ac(a2-6)Gal(b1-4)GlcNAc6S
# In short: as §1
# Neu5Ac(a2-6)GalNAc = molecular target: Neu5Ac(a2-6)GalNAc
# In short: as §1
# [36] = molecular target: Neu5Ac(a2-6)GalNAc(b1-4)GlcNAc
# In short: as §1
# Neu5Ac(a2-8)Neu5Ac = molecular target: Neu5Ac(a2-8)Neu5Ac
# In short: as §1
# [37] = molecular target: Neu5Ac(a2-8)Neu5Ac(a2-3)Gal(b1-4)Glc
# In short: as §1
# [38] = molecular target: Neu5Ac(a2-8)Neu5Ac(a2-3)[GalNAc(b1-4)]Gal(b1-4)Glc
# In short: as §1
# [39] = molecular target: Neu5Ac(a2-8)Neu5Ac(a2-8)Neu5Ac
# In short: as §1
# [40] = molecular target: Neu5Ac(a2-8)Neu5Ac(a2-8)Neu5Ac(a2-3)Gal(b1-4)Glc
# In short: as §1
# [41] = molecular target: Neu5Ac(a2-8)Neu5Ac(a2-8)Neu5Ac(a2-3)[GalNAc(b1-4)]Gal(b1-4)Glc
# In short: as §1
# [42] = molecular target: Neu5Ac(a2-8)Neu5Ac(a2-8)Neu5Ac(a2-8)Neu5Ac(a2-3)[GalNAc(b1-4)]Gal(b1-4)Glc
# In short: as §1
# [43] = molecular target: Neu5Ac9Ac(a2-6)Gal(b1-4)GlcNAc
# In short: as §1
# [44] = molecular target: Neu5Gc(a2-3)Gal(b1-3)GlcNAc
# In short: as §1
# [45] = molecular target: Neu5Gc(a2-3)Gal(b1-3)[Fuc(a1-4)]GlcNAc
# In short: as §1
# Neu5Gc(a2-3)Gal(b1-4)Glc = molecular target: Neu5Gc(a2-3)Gal(b1-4)Glc
# In short: as §1
# [46] = molecular target: Neu5Gc(a2-3)Gal(b1-4)GlcNAc
# In short: as §1
# [47] = molecular target: Neu5Gc(a2-3)Gal(b1-4)[Fuc(a1-4)]GlcNAc
# In short: as §1
# [48] = molecular target: Neu5Gc(a2-6)Gal(b1-4)GlcNAc
# In short: as §1
# Neu5Gc(a2-6)GalNAc = molecular target: Neu5Gc(a2-6)GalNAc
# In short: as §1
binder,measurement,setting,value
"FBG4 (Homo sapiens), Q96EF6 (protein) MGARLSRRRLPADPSLALDALPPELLVQVLSHVPPRSLVTRCRPVCRAWRDIVDGPTVWLLQLARDRSAEGRALYAVAQRCLPSNEDKEEFPLCALARYCLRAPFGRNLIFNSCGEQGFRGWEVEHGGNGWAIEKNLTPVPGAPSQTCFVTSFEWCSKRQLVDLVMEGVWQELLDSAQIEICVADWWGARENCGCVYQLRVRLLDVYEKEVVKFSASPDPVLQWTERGCRQVSHVFTNFGKGIRYVSFEQYGRDVSSWVGHYGALVTHSSVRVRIRLS",glycan array binding signal (z-score),Man(b1-4)GlcNAc,-0.448
same,glycan array binding signal (z-score),Neu5Ac(a2-3)Gal,-0.451
same,glycan array binding signal (z-score),[1],-0.559
same,glycan array binding signal (z-score),[2],-0.427
same,glycan array binding signal (z-score),[3],-0.377
same,glycan array binding signal (z-score),[4],0.086
same,glycan array binding signal (z-score),[5],-0.533
same,glycan array binding signal (z-score),[6],-0.268
same,glycan array binding signal (z-score),[7],-0.617
same,glycan array binding signal (z-score),[8],0.76
same,glycan array binding signal (z-score),[9],-0.472
same,glycan array binding signal (z-score),[10],-0.341
same,glycan array binding signal (z-score),[11],-0.538
same,glycan array binding signal (z-score),[12],-0.494
same,glycan array binding signal (z-score),Neu5Ac(a2-3)Gal(b1-4)Glc,-0.511
same,glycan array binding signal (z-score),[13],-0.478
same,glycan array binding signal (z-score),[14],-0.278
same,glycan array binding signal (z-score),[15],-0.49
same,glycan array binding signal (z-score),[16],-0.576
same,glycan array binding signal (z-score),[17],-0.358
same,glycan array binding signal (z-score),[18],-0.301
same,glycan array binding signal (z-score),[19],0.103
same,glycan array binding signal (z-score),[20],-0.473
same,glycan array binding signal (z-score),[21],-0.522
same,glycan array binding signal (z-score),[22],-0.355
same,glycan array binding signal (z-score),[23],-0.292
same,glycan array binding signal (z-score),[24],-0.112
same,glycan array binding signal (z-score),[25],0.228
same,glycan array binding signal (z-score),[26],-0.423
same,glycan array binding signal (z-score),Neu5Ac(a2-3)GalNAc,-0.555
same,glycan array binding signal (z-score),[27],-0.5
same,glycan array binding signal (z-score),[28],-0.245
same,glycan array binding signal (z-score),[29],-0.502
same,glycan array binding signal (z-score),[30],-0.362
same,glycan array binding signal (z-score),[31],-0.514
same,glycan array binding signal (z-score),[32],0.219
same,glycan array binding signal (z-score),[33],-0.508
same,glycan array binding signal (z-score),[34],-0.485
same,glycan array binding signal (z-score),[35],0.175
same,glycan array binding signal (z-score),Neu5Ac(a2-6)GalNAc,-0.562
same,glycan array binding signal (z-score),[36],-0.529
same,glycan array binding signal (z-score),Neu5Ac(a2-8)Neu5Ac,-0.291
same,glycan array binding signal (z-score),[37],-0.41
same,glycan array binding signal (z-score),[38],-0.266
same,glycan array binding signal (z-score),[39],-0.213
same,glycan array binding signal (z-score),[40],-0.394
same,glycan array binding signal (z-score),[41],-0.281
same,glycan array binding signal (z-score),[42],-0.316
same,glycan array binding signal (z-score),[43],0.17
same,glycan array binding signal (z-score),[44],-0.432
same,glycan array binding signal (z-score),[45],-0.463
same,glycan array binding signal (z-score),Neu5Gc(a2-3)Gal(b1-4)Glc,-0.37
same,glycan array binding signal (z-score),[46],-0.568
same,glycan array binding signal (z-score),[47],-0.439
same,glycan array binding signal (z-score),[48],-0.334
same,glycan array binding signal (z-score),Neu5Gc(a2-6)GalNAc,-0.533
